# Data reported in publication PMC11432932.
# These are yes or no findings as the source states them, for the method shown. For part of these data: Binding seen in cells or lysates may run through a third protein. Some entries that bind do so weakly or less than the wild type. For part of these data: Tags and fused reporters may be left off the sequences shown.
# T1: EXO70E2-YC (Arabidopsis) (UniProt Q9FNR3)
# T1 sequence: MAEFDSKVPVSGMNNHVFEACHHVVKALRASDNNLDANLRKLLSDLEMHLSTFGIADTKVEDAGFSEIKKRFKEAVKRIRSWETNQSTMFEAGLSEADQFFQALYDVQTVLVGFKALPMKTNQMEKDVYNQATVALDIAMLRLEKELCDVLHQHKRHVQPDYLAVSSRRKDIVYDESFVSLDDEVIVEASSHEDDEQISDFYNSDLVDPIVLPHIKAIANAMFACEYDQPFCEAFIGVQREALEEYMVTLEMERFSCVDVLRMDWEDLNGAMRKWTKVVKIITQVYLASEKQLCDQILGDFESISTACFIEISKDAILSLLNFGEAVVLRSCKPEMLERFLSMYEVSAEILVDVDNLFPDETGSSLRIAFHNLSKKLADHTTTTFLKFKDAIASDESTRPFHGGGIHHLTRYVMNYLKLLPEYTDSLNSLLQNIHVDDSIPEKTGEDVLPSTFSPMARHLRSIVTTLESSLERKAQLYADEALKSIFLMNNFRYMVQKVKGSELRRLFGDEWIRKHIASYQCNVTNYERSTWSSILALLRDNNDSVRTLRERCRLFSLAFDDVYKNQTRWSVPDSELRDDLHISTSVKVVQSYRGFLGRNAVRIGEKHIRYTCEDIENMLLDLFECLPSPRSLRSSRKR
# T2: BD-EXO70E2 (Arabidopsis) (UniProt Q9FNR3)
# T2 sequence: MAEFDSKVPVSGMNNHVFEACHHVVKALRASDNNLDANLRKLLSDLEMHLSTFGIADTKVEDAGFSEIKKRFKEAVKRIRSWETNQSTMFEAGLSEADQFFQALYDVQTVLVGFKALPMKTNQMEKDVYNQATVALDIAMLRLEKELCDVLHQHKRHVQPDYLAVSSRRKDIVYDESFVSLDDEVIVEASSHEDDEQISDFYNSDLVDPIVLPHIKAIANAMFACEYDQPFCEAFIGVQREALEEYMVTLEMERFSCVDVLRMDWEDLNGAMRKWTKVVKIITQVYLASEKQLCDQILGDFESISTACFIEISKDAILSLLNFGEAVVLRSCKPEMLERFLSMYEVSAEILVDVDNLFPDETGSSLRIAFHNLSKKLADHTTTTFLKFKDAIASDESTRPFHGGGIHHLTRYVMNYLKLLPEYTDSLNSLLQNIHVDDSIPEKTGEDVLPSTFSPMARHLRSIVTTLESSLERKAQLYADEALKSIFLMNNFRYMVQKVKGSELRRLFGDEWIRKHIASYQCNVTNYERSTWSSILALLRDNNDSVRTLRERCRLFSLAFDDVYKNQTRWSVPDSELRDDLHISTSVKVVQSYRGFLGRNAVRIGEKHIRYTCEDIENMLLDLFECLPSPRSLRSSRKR
# T3: MBP-EXO70E2-6His (Arabidopsis) (UniProt Q9FNR3)
# T3 sequence: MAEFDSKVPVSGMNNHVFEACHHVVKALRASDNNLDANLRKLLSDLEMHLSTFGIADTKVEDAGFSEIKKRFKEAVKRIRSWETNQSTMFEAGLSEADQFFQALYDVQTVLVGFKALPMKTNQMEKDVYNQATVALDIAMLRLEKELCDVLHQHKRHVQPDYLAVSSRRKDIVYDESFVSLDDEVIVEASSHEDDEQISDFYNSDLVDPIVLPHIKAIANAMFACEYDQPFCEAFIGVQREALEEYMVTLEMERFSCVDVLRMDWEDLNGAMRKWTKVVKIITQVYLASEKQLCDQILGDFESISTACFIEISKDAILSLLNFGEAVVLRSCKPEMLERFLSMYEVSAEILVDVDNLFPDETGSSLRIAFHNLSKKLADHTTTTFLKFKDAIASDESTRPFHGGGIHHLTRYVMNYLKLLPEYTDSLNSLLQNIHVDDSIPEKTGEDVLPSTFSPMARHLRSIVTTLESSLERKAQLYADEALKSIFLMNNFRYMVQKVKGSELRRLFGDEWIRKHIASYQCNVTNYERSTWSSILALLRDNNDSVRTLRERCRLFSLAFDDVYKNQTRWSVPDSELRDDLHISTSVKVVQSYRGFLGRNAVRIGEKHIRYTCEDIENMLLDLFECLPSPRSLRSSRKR
# Molecular target: T1, EXO70E2-YC (Arabidopsis)
# Test: split reporter; BiFC with YFP halves, vectors co-transformed into Arabidopsis protoplasts for 18 h; confocal microscopy
row,Binder,binding
1,"BOI-YN (protein, UniProt O81851 1-304) MAVQAHHMNIFSQFISPNRDCVKFQENMNHGEFEFTGGEVPLITGESFAVEPLAAKANFNKAESGLSYNFTVPPLSTKRQRDFQFSDSNAPVKRRSVAFDSSSPSLINVELVSQIQNQQQSEIDRFVAQQTEKLRIEIEARQQTQTRMLASAVQNVIAKKLKEKDDEIVRIRNLNWVLQERVKSLYVENQIWRDIAQTNEANANTLRTNLDQVLAQLETFPTASAVVEDDAESSCGSCCGDGGGEAVTAVGGGCKRCGEREASVLVLPCRHLCLCTVCGGSALLRTCPVCDMVMNASVHVNMSS",binds

# Molecular target: T2, BD-EXO70E2 (Arabidopsis)
# Test: two-hybrid; bait in pGBKT7, prey in pGADT7, Gold Yeast Y2H; growth on SD/(-Trp-Leu-His-Ade) (QDO) medium for 3 days
row,Binder,binding
1,"AD-BOI (protein, UniProt O81851 1-304) MAVQAHHMNIFSQFISPNRDCVKFQENMNHGEFEFTGGEVPLITGESFAVEPLAAKANFNKAESGLSYNFTVPPLSTKRQRDFQFSDSNAPVKRRSVAFDSSSPSLINVELVSQIQNQQQSEIDRFVAQQTEKLRIEIEARQQTQTRMLASAVQNVIAKKLKEKDDEIVRIRNLNWVLQERVKSLYVENQIWRDIAQTNEANANTLRTNLDQVLAQLETFPTASAVVEDDAESSCGSCCGDGGGEAVTAVGGGCKRCGEREASVLVLPCRHLCLCTVCGGSALLRTCPVCDMVMNASVHVNMSS",binds
2,"BRG2 (in pGADT7) (protein, UniProt F4IDI6 1-358) MAVDAHHLFLSPPQLFSNRELTMNNNTMEPTSGGFCNNNQTGYGVVSPFSVPNHTSTTTTATPPLLHVYGGSDTIPTTAGYYADGATNLDCEFFPLPTRKRSRDSSRSNYHHLLLQNPRSSSCVNAATTTTTTTLFSFLGQDIDISSHMNQQQHEIDRFVSLHLYQMERVKYEIEEKRKRQARTIMEAIEQGLVKRLRVKEEERERIGKVNHALEERVKSLSIENQIWRDLAQTNEATANHLRTNLEHVLAQVKDVSRGAGLEKNMNEEDDAESCCGSSCGGGGEETVRRRVGLEREAQDKAERRRRRMCRNCGEEESCVLLLPCRHLCLCGVCGSSVHTCPICTSPKNASVHVNMSS",binds
3,"BRG3 (in pGADT7) (protein, UniProt Q9LDD1 1-335) MAVEAHHLNPLFSSNREMIHPVEASGVVYNTQMRYGTVPTFNPTVECQTSLFNPIYNISPVDRLVHQSMKPTIQSVDSSLTFNSDNNVDFLRPVSSRKRSREESVVLNPSAYMQIQKNPTDPLMFLGQDLSSNVQQHHFDIDRLISNHVERMRMEIEEKRKTQGRRIVEAVEQGLMKTLRAKDDEINHIGKLNLFLEEKVKSLCVENQIWRDVAQSNEATVNALRSNLQQVLAAVERNRWEEPPTVADDAQSCCGSNDEGDSEEERWKLAGEAQDTKKMCRVGMSMCRSCGKGEASVLLLPCRHMCLCSVCGSSLNTCPICKSPKTASLHVNLSS",binds
4,"BOI C-terminal (151–304 aa) (domain or fragment, UniProt O81851 151-304) SAVQNVIAKKLKEKDDEIVRIRNLNWVLQERVKSLYVENQIWRDIAQTNEANANTLRTNLDQVLAQLETFPTASAVVEDDAESSCGSCCGDGGGEAVTAVGGGCKRCGEREASVLVLPCRHLCLCTVCGGSALLRTCPVCDMVMNASVHVNMSS",binds
5,"BOI RING domain deficient fragment (1–229 aa) (domain or fragment, UniProt O81851 1-229) MAVQAHHMNIFSQFISPNRDCVKFQENMNHGEFEFTGGEVPLITGESFAVEPLAAKANFNKAESGLSYNFTVPPLSTKRQRDFQFSDSNAPVKRRSVAFDSSSPSLINVELVSQIQNQQQSEIDRFVAQQTEKLRIEIEARQQTQTRMLASAVQNVIAKKLKEKDDEIVRIRNLNWVLQERVKSLYVENQIWRDIAQTNEANANTLRTNLDQVLAQLETFPTASAVVED",binds
6,"BOI N-terminal (1–150 aa) (domain or fragment, UniProt O81851 1-150) MAVQAHHMNIFSQFISPNRDCVKFQENMNHGEFEFTGGEVPLITGESFAVEPLAAKANFNKAESGLSYNFTVPPLSTKRQRDFQFSDSNAPVKRRSVAFDSSSPSLINVELVSQIQNQQQSEIDRFVAQQTEKLRIEIEARQQTQTRMLA",no binding
7,"BOI fragment containing only the RING domain (230–304 aa) (domain or fragment, UniProt O81851 230-304) DAESSCGSCCGDGGGEAVTAVGGGCKRCGEREASVLVLPCRHLCLCTVCGGSALLRTCPVCDMVMNASVHVNMSS",no binding

# Molecular target: T3, MBP-EXO70E2-6His (Arabidopsis)
# Test: pull-down; MBP-BOI-HA incubated with MBP-6His or MBP-EXO70E2-6His and Ni-NTA agarose beads, 2–3 h at 4 °C; beads washed 6–10 times; anti-HA immunoblot
row,Binder,binding
1,"MBP-BOI-HA (protein, UniProt O81851 1-304) MAVQAHHMNIFSQFISPNRDCVKFQENMNHGEFEFTGGEVPLITGESFAVEPLAAKANFNKAESGLSYNFTVPPLSTKRQRDFQFSDSNAPVKRRSVAFDSSSPSLINVELVSQIQNQQQSEIDRFVAQQTEKLRIEIEARQQTQTRMLASAVQNVIAKKLKEKDDEIVRIRNLNWVLQERVKSLYVENQIWRDIAQTNEANANTLRTNLDQVLAQLETFPTASAVVEDDAESSCGSCCGDGGGEAVTAVGGGCKRCGEREASVLVLPCRHLCLCTVCGGSALLRTCPVCDMVMNASVHVNMSS",binds
